Read counts are not given, so values of variants with three or more changes are uncertain.

The labels stand for the following.
B1: LINE1-mini (parent)
chain: GGCAGAGCUCAACACAGCGUGGCAAAGUGGCUGUGGCUAGACUGCC

Variants of B1 are the subject of the data set. As to the kind of experiment: self-cleavage, relative activity (ratio to wild type); higher = more cleavage; in vitro, sequencing; the parent is a self-cleaving ribozyme.
GACAUAGCUCAACACAGGGUGGCAAAGUGGCUGUGGCUAGACUGCC [G2A G5U C18G]: the self-cleavage turned out to be 0.13.

GACAGAGCUCAACACAGGGUGGCAAAGUGGCUGUGGCUAGGCUGCC [G2A C18G A41G]: the self-cleavage was 0.29.

As for GACACAGUUCAACACAGCGUGGCAAAGCGGUUGUGGCUAGACUGCC [G2A G5C C8U U28C C31U], the self-cleavage was 0.15.

Consider GACAGAACUCAACACAGCGUAGCAAAGUGGUUGUGGCUAGACAGCC [G2A G7A G21A C31U U43A], for which the self-cleavage was 0.36.

As for GACAGAACUCAACACAGCGUGGCAAAGUGGCUAUGGCUAGACUGCC [G2A G7A G33A], the self-cleavage was found to be 0.4.

Take GACAGAAUACACCACAGCGUGGCAAAGUGGCUGUGGCUAAGUUGCC [G2A G7A C8U U9A A12C G40A A41G C42U]: the self-cleavage turned out to be 0.05.

Consider GACAAAGCUCAACACAGCGUGGCAAAGUGGUUGUGGCCAGACUGCC [G2A G5A C31U U38C], for which the self-cleavage was 0.04.

Turning to GACAAAGCUCAACACCGCGUGGCAAAGUGGCUGUGGCUAGACUCGC [G2A G5A A16C G44C C45G], the self-cleavage worked out at 0.08.

Consider GACAAAGCUCCACACAGCGUGGCAAAGUGGCUGUGGCUAGACUGCC [G2A G5A A11C], for which the self-cleavage was 0.11.

In the case of GACAGAACUCAACACAGCGUGGCAUAGUGGCUGUGGCUAGACUGCC [G2A G7A A25U], the self-cleavage is 0.26.

As to GACAGAGCUCAACACAGCGUGGCAAAGUGGAGGUGGCUAGACUGAC [G2A C31A U32G C45A], the self-cleavage was 0.22.

For the variant GACAUAGGUAAACACAGCGUGGAAAAGUGGCUGAAGCUAGACUGCC [G2A G5U C8G C10A C23A U34A G35A], the self-cleavage was determined as 0.06.

On to GACAGAGCUCAACACAGCGUGGCAAAGUGGCUGUGGAAAAAAUGCC [G2A C37A U38A G40A C42A], for which the self-cleavage came to 0.08.

GACAGAUCUCAAUACAGCGUGGCAAAGUGGCUGUGUUUAGUCUGUC [G2A G7U C13U G36U C37U A41U C45U]: the self-cleavage came out at 0.06.

GACAGAAAACAACACAGCGUGGUAAAAUGGCUGUGGCUAGACUGCC [G2A G7A C8A U9A C23U G27A]: the self-cleavage was determined as 0.18.

As for GACAGAGCUCAACACAGCGUGGAAAAAUGUCUGUAGCUAGACAGCC [G2A C23A G27A G30U G35A U43A], the self-cleavage was found to be 0.03.

In the case of GACAGAUCCCAGCACAGCGUGGCAAAGUGGAUGUGGCGAGACUGCC [G2A G7U U9C A12G C31A U38G], the self-cleavage amounted to 0.02.

GACAGAGCUCAACACAGUGUGGCAAAGUGGCUGUGGGUAGACUGCC [G2A C18U C37G]: the self-cleavage was found to be 0.92.

As for GACAGAGCUCAACACAGCGUGGCAAAGUGGGUGUCGCUAGACUGCC [G2A C31G G35C], the self-cleavage came to 0.1.

Consider GACAGAGCUCAACACAGGGUGGCAAUGUGGCUGUGGCUAGACUGCU [G2A C18G A26U C46U], for which the self-cleavage worked out at 0.03.

Take GACAGAUAUCAACACAGCGCGGCAAAGUGGCUGUGGCUGGACUGCC [G2A G7U C8A U20C A39G]: the self-cleavage was found to be 0.47.

Take GACAGAAGUCAACACAGCAUGGCAAAGUGGCGGUGGCUAGACUGUC [G2A G7A C8G G19A U32G C45U]: the self-cleavage was determined as 0.13.

For the variant GACAAAGCUCAAUACAGCGUGGCAAAGUGGCUGUGGCUAGUGUGCC [G2A G5A C13U A41U C42G], the self-cleavage came to 0.58.

Regarding GACAGACCUCAACACAGCGUGGCAAAGUCGCUGUGGCUAGUCUGCC [G2A G7C G29C A41U], the self-cleavage came to 0.05.

As to GACAAAGAUCAACACAGUGUGGCAAAGUGGCUGUGGCUAGACUGCC [G2A G5A C8A C18U], the self-cleavage came to 2.24.

Regarding GACAGAGCUCAACACAGUGUGGCAAAGUGGCUGUGGUUAGACUGCG [G2A C18U C37U C46G], the self-cleavage worked out at 0.05.

Turning to GACAUAGCUCAACACAGCGUUGCAAAGUGGCUGUGGCUAAAUUGCC [G2A G5U G21U G40A C42U], the self-cleavage was 0.12.

As to GACAAAGCUCAACACAGCGAGGCAAAGUGGCUGUAGCUAGACUGCC [G2A G5A U20A G35A], the self-cleavage was found to be 0.51.

Regarding GACAGACCUCAACACAGCUUGGAAAAGUGGCUGUGGCUAGACUGCC [G2A G7C G19U C23A], the self-cleavage came out at 0.07.

As to GACAGACCUCAACACAGCGUGGCAAAGUGGCUGUGGCUCGACUGCC [G2A G7C A39C], the self-cleavage is 0.54.

Regarding GACAAAGCUCAACCCAGCGUGGCAAAGUGGCUGUGGCUAGACUGCA [G2A G5A A14C C46A], the self-cleavage stood at 0.28.

Consider GACAGAGCUCAACACAGCGUGGCAAAGUGGUUGUGGCGAGACUGCA [G2A C31U U38G C46A], for which the self-cleavage was 0.08.

For the variant GACAGAACUACACACAGCAUGGCAAAGUGGCUGCGGCUAGACAGCC [G2A G7A C10A A11C G19A U34C U43A], the self-cleavage stood at 0.08.

Turning to GACAUAGCUCAACACAGCGUGGCAAAGUUGCUGUGGCUAGCCUGCC [G2A G5U G29U A41C], the self-cleavage is 0.08.

In the case of GACAGAGCUCAACACAGGGUGGCAAAGUGGCUGUGGCUAGACUGCA [G2A C18G C46A], the self-cleavage was determined as 0.22.

On to GACAAAGCUCAACACAGCGUGGCAAAGUGGCUAUGGCUAGACUGCC [G2A G5A G33A], for which the self-cleavage came to 1.03.

For GACAGAACUCAACACAGCGUAGCAAAGUGGCUGUGGCUAGUCUGCC [G2A G7A G21A A41U], the self-cleavage was 0.94.

In the case of GACAGAGCUCAACACAGUGUGGCAAAGUGGUUGUGGCUAGACUGCC [G2A C18U C31U], the self-cleavage came out at 0.04.

For the variant GACAAAGCUCAACACAGCGUGGCAAAGUAGCUAUGGCUAGACUGCC [G2A G5A G29A G33A], the self-cleavage was 0.19.

Turning to GACAGAUCUCAACACAGUCUGGAAAAGUGGAUGUGGCUAGACAGCC [G2A G7U C18U G19C C23A C31A U43A], the self-cleavage was determined as 0.2.

As to GACAGAGCUCAACACAGCGUGGGAAAGUGACUCUGGCUAGACUGCC [G2A C23G G30A G33C], the self-cleavage amounted to 0.07.

Turning to GACAAAGCUCAACACAGGGUGGCAAAGUGGCUGUGUUUAGACUGCC [G2A G5A C18G G36U C37U], the self-cleavage amounted to 0.3.

On to GACAGAACUCGACACACCGUGGCAAAGUGGCUGUGGCUAGACUGCC [G2A G7A A11G G17C], for which the self-cleavage worked out at 0.13.

Regarding GACAGACCUCAACACAGCGUGGCAAAGUGGCUGUGGCUAGACUGCA [G2A G7C C46A], the self-cleavage was found to be 0.17.

GACACAGCUCAAUACAGCGUGGCAAAGUGGCUGUGGCUAGACUGCC [G2A G5C C13U]: the self-cleavage amounted to 0.04.

For GACACAGCGCAACACAGCGUGGCAAAGUGGCUGUGGCUAGACUGCC [G2A G5C U9G], the self-cleavage turned out to be 0.09.

On to GACAGAACUCAACACAGCGUGGUAAUGUGGCGGUGGCUAGACUGCC [G2A G7A C23U A26U U32G], for which the self-cleavage was 1.19.

As for GACAGAGCUCAACACAGCGUGGAAAAGUGGCUAUGGCUAGACUGCC [G2A C23A G33A], the self-cleavage came to 0.05.

GACAGAGCUCAACACAGCGUGGAAAAGUGGCUGUGGCUAGACUGUC [G2A C23A C45U]: the self-cleavage was determined as 3.

In the case of GACAGAACUCAACAGAGCAUGGCAAAGUGACAGUGGCUAGACUGCC [G2A G7A C15G G19A G30A U32A], the self-cleavage came out at 0.36.

As for GACAUAGCUCAACACAGCGUGGCAAAUUGGCUGUGGCUAGACUGCC [G2A G5U G27U], the self-cleavage came to 0.06.

On to GACAGAGCUCAACACAGAGUGCCAAAGUGGCUGUGGCUAGACUGCC [G2A C18A G22C], for which the self-cleavage is 0.8.

With GACAAAGCUCAACACAGGGUGGCAAAGUGGCUGUGGCUAGACUGCC [G2A G5A C18G], the self-cleavage came to 0.18.

With GACAUAGCUAAACGCAGCGUGGCAAAGUGGCUGUGGCUAGACUGCC [G2A G5U C10A A14G], the self-cleavage is 0.03.

For the variant GACAGACCUCAACACAGCCUGGCAAAGUGGCUGUGACUAGACUGGC [G2A G7C G19C G36A C45G], the self-cleavage turned out to be 0.23.

For GACAGAACGCAACACAGCGUGGCAAAGUGGCUGUGGCCAGACUGCC [G2A G7A U9G U38C], the self-cleavage came out at 0.11.

For the origin of these results see the RNAGym collection of RNA variant scans (doi:10.7554/elife.90254).
